Assays:
[1] = test system: NC(Cc1cn(CCF)c2ccccc12)C(=O)O; assay: Activity of recombinant human IDO assessed as formation of N-formyl-L-kynurenine at 37 degC at pH 6.5 after 5 to 15 mins by HPLC with fluorescence detection method
In short: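 Recombinant human IDO at 37 °C, pH 6.5. Perchloric acid is added after incubation to hydrolyse N-formyl-kynurenine derivatives to kynurenines. Substrate is separated by HPLC/UPLC and quantified by fluorescence detection (method B, [S] ≥ 2 μM). kcat/Km is derived from substrate concentration versus incubation time, and Km from initial rates.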

[2] = test system: N[C@@H](Cc1c[nH]c2ccc(O)cc12)C(=O)O; conditions: Homo sapiens
[3] = test system: N[C@@H](Cc1c[nH]c2ccccc12)C(=O)O; conditions: Homo sapiens
[4] = test system: NC(Cc1cn(CCF)c2ccccc12)C(=O)O; conditions: Homo sapiens
[5] = test system: N[C@@H](Cc1c[nH]c2ccc(O)cc12)C(=O)O; conditions: Homo sapiens; remark: listed apart in the source
[6] = test system: N[C@@H](Cc1c[nH]c2ccccc12)C(=O)O; conditions: Homo sapiens; remark: listed apart in the source

Indoleamine 2,3-dioxygenase 1 (Homo sapiens) (no sequence given)
Km [1]: 70 µM
Km [2]: 17 µM
Km [3]: 15 µM
kcat/Km [4]: 5.8 ×10² /M/s
kcat/Km [5]: 21 ×10² /M/s
kcat/Km [6]: 2100 ×10² /M/s
